Data taken from PubChem BioAssay AID540317 (National Center for Advancing Translational Sciences (NCATS), 2011).
The campaign covered roughly 390,000 compounds. About 2,200 (0.56%) were called active. The inconclusive results got no clear call from the source; some entries with a clear call stand among them for comparison. Calls follow the shape of the dose curve; as a rule, active = well fitted inhibition curve with a large enough effect; inconclusive = small, poorly fitted or top-dose-only effect; inactive = no such curve, though single readings can be large or run the other way. Where the call is inconclusive, the potency comes from a doubtful curve fit.

Target: Chromobox protein homolog 1 (Homo sapiens) (UniProt P83916)
Assay: HTS for Inhibitors of HP1-beta Chromodomain Interactions with Methylated Histone Tails; also: nearly all actives have a fitted effect of over 70% in size
Settings: AlphaScreen HP1-beta / biotin-H3K9me3 peptide binding; series mostly up to 114 µM; activity change, negative = inhibition: at the top concentration
How it was run: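 AlphaScreen: HP1-beta (50 nM) preformed 30 min with biotin-H3(1-18)K9me3 peptide (50 nM) in PBS pH 7.4, 0.01% Tween-20. Compound added for 30 min at RT, then streptavidin donor/nickel chelate acceptor beads (10 ug/mL) for 30 min.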
Potency is read from the fitted curve at half-maximal effect; tags tell the direction and shape of the fitted curve.

UniProt P83916, sequence (P83916 whole entry, looked up): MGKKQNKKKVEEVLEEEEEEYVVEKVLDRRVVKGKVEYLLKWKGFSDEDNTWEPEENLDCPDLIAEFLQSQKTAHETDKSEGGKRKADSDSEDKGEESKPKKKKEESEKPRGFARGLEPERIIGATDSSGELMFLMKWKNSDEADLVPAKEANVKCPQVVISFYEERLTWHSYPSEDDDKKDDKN

Question: For `COc1ccc(N(C(=O)CSCC(=O)Nc2cc(C)on2)C(C(=O)NC2CCCCC2)c2ccc(O)c(O)c2)cc1` (stereo unspecified), which Potency is on record?
Answer: inconclusive: 39.8 µM [inhibitor, partial curve, poor fit]

Question: `O=C1/C(=C/N(C(=O)c2ccco2)c2ccc(Br)cc2)Sc2ccccc21` was tested. Which Potency did it give?
Answer: inconclusive: 70.8 µM [inhibitor, partial curve]

Question: For `CC(C)(C)c1ccc(Cn2ccc(-c3ccc4c(c3)OCO4)n2)cc1`, which Potency is on record?
Answer: inconclusive: 35.5 µM [inhibitor, single point]

Question: `CN(C(=O)COc1ccccc1)c1nnc(C23CC4CC(CC(C4)C2)C3)s1` was tested. Which “activity change, negative = inhibition” value did it give?
Answer: inactive: 31%

Question: How did the “activity change, negative = inhibition” value turn out when `COC(=O)C1=C(C)NC(=O)/C1=C\c1cccs1` was run?
Answer: inactive: 3.69%

Question: How did the Potency turn out when `C(=N\N(Cc1ccccc1)c1ccccc1)/c1ccco1` was run?
Answer: inconclusive: 31.6 µM [inhibitor, full curve]

Question: For `CCOc1ccc(-n2c(-c3ccc(Br)cc3)cc3c2CC(C)(C)CC3=O)cc1`, which Potency is on record?
Answer: inconclusive: 12.6 µM [inhibitor, partial curve, poor fit]

Question: With `CC(C)N1C(=O)CC(Nc2ccc(N3CCOCC3)cc2)C1=O` (stereo unspecified) as the compound, how does the “activity change, negative = inhibition” value read?
Answer: inactive: 2.13%

Question: `Cc1ccc2cc(C)c(SCC(=O)NCC3CCCO3)nc2c1` (stereo unspecified) was tested. Which Potency did it give?
Answer: inconclusive: 89.1 µM [inhibitor, partial curve, poor fit]

Question: For `O=c1c(Cl)c(O)ccn1C1OC(CO)C(O)C1O` (stereo unspecified), which “activity change, negative = inhibition” value is on record?
Answer: inactive: 17.9%

Question: With `Cc1ccc(S(=O)(=O)c2nc(-c3ccccc3)oc2N2CCCC2)cc1` as the compound, how does the Potency read?
Answer: inconclusive: 56.2 µM [inhibitor, partial curve, poor fit]

Question: For `COc1ccc2nc(N=Nc3ccc(O)c4ccccc34)sc2c1`, which Potency is on record?
Answer: inconclusive: 3.55 µM [inhibitor, full curve, poor fit]

Question: For `Cc1c(NS(=O)(=O)c2cccs2)cccc1-c1nc2cccnc2s1`, which “activity change, negative = inhibition” value is on record?
Answer: inactive: 11.2% [at 57 µM]

Question: How did the Potency turn out when `COc1cc(/C=C2/SC(=S)N(Cc3ccccc3)C2=O)ccc1O` was run?
Answer: inconclusive: 31.6 µM [inhibitor, partial curve]

Question: Which Potency does the source give for `COCC(C)n1c(C)cc(C(=O)COC(=O)c2ccc3ncsc3c2)c1C` (stereo unspecified) here?
Answer: inconclusive: 39.8 µM [inhibitor, single point]

Question: For `CCc1ccc(NC(=O)COC(=O)/C=C/c2ccco2)cc1`, which Potency is on record?
Answer: inconclusive: 79.4 µM [inhibitor, partial curve]

Question: Which “activity change, negative = inhibition” value does the source give for `COc1ccccc1N(CC(O)Cn1c(C)nc2ccccc21)S(=O)(=O)c1ccccc1` (stereo unspecified) here?
Answer: inactive: 27.8%

Question: With `CCc1ccc(C2c3c(-c4cc(C)ccc4O)n[nH]c3C(=O)N2CCO)cc1` (stereo unspecified) as the compound, how does the “activity change, negative = inhibition” value read?
Answer: inactive: 15.7%

Question: How did the Potency turn out when `CCOC(=O)C1=C(C)N=c2s/c(=C/c3ccco3)c(=O)n2C1c1cccc(OC)c1` (stereo unspecified) was run?
Answer: inconclusive: 39.8 µM [inhibitor, single point]

Question: How did the Potency turn out when `N#Cc1c(SCC(=O)Nc2nncs2)sc2c(O)cc(=O)[nH]c12` was run?
Answer: inconclusive: 28.2 µM [inhibitor, single point]

Question: For `C=CCn1c(SCC(=O)c2ccc(O)c(O)c2)nnc1-c1ccc(C)cc1`, which “activity change, negative = inhibition” value is on record?
Answer: inactive: 12.9%

Question: For `O=C(O)c1nn(Cc2ncc(-c3cccc(Cl)c3)o2)c(=O)c2ccccc12`, which Potency is on record?
Answer: inconclusive: 89.1 µM [inhibitor, single point]

Question: How did the “activity change, negative = inhibition” value turn out when `O=S(=O)(c1cccs1)N1CCN(c2ccccc2)CC1` was run?
Answer: inactive: 1.88%

Question: With `Cc1sc2ncnc(NCC(O)c3ccc([N+](=O)[O-])cc3)c2c1C` (stereo unspecified) as the compound, how does the “activity change, negative = inhibition” value read?
Answer: inactive: -0.419%

Question: How did the Potency turn out when `COc1ccccc1CNC(=O)COC(=O)c1cc(-c2ccco2)nc2ccccc12` was run?
Answer: inconclusive: 22.4 µM [inhibitor, full curve, poor fit]

Question: How did the “activity change, negative = inhibition” value turn out when `Cn1c(C(=O)NCc2ccccc2Cl)cc2sc(Cl)cc21` was run?
Answer: inactive: 61.2%

Question: With `S=C(N/N=C/c1ccccc1)N1CCOCC1` as the compound, how does the “activity change, negative = inhibition” value read?
Answer: inactive: 19.5%

Question: Which Potency does the source give for `Cc1ccc(C)c(N=Nc2ccc(O)c3ncccc23)c1` here?
Answer: inconclusive: 14.1 µM [inhibitor, full curve]

Question: `COc1ccc(/C(O)=C2/C(=O)C(=O)N(c3ccccn3)C2c2ccc(OC)cc2)cc1` (stereo unspecified) was tested. Which “activity change, negative = inhibition” value did it give?
Answer: inactive: 20%

Question: `CC(C)NC(=O)NC(=O)COc1ncnc2sccc12` was tested. Which Potency did it give?
Answer: inconclusive: 39.8 µM [inhibitor, single point]

Question: With `Oc1ccc(C(=S)N2CCN(Cc3ccccc3)CC2)cc1` as the compound, how does the Potency read?
Answer: inconclusive: 11.2 µM [inhibitor, full curve]

Question: Which Potency does the source give for `COC(=O)c1cc(C(=O)NC(C)C2CC3CCC2C3)cc([N+](=O)[O-])c1` (stereo unspecified) here?
Answer: inconclusive: 79.4 µM [inhibitor, partial curve, poor fit]

Question: Which Potency does the source give for `COCCCNCCOCCOc1ccccc1-c1ccccc1` here?
Answer: inconclusive: 56.2 µM [inhibitor, partial curve, poor fit]

Question: `O=C(c1cccs1)N1CCN(c2cccc(Cl)c2)CC1` was tested. Which “activity change, negative = inhibition” value did it give?
Answer: inactive: 41.4%

Question: For `CSC1=NS(=O)(=O)c2c(C)nn(C)c2S1`, which Potency is on record?
Answer: active: 12.6 µM

Question: `CCc1cccc(C)c1Nc1c(-c2ccccc2)nc2sccn12` was tested. Which Potency did it give?
Answer: inconclusive: 15.8 µM [inhibitor, full curve]

Question: With `N#CC1=C(c2ccccc2)/C(=C/c2ccccc2)OC1=O` as the compound, how does the Potency read?
Answer: inconclusive: 50.1 µM [inhibitor, single point]

Question: With `Cc1cc2ccccc2n1CCNC(=O)c1ccc(Br)o1` as the compound, how does the Potency read?
Answer: inconclusive: 22.4 µM [inhibitor, partial curve, poor fit]

Question: With `O=S(=O)(c1ccccc1)c1nnn2c1nc(NCc1ccc(F)cc1)c1sccc12` as the compound, how does the “activity change, negative = inhibition” value read?
Answer: inactive: 21.7%

Question: `O=C(O)c1ccc(CSc2nnc(-c3ccncc3)n2-c2ccc(Br)cc2)cc1` was tested. Which “activity change, negative = inhibition” value did it give?
Answer: inactive: 44.3%

Question: With `CCn1c(=O)c([N+](=O)[O-])c(N2CCN(Cc3ccc4c(c3)OCO4)CC2)c2ccccc21` as the compound, how does the Potency read?
Answer: inconclusive: 39.8 µM [inhibitor, partial curve]

Question: For `Cc1c(C(=O)N(Cc2ccc(N(C)C)cc2)CC2CCCO2)oc2ccc(Cl)cc12` (stereo unspecified), which Potency is on record?
Answer: inconclusive: 11.2 µM [inhibitor, partial curve, poor fit]

Question: Which Potency does the source give for `O=[N+]([O-])c1ccc(N2CCN(CC3CCCCC3)CC2)cc1` here?
Answer: inconclusive: 31.6 µM [inhibitor, partial curve]

Question: Which “activity change, negative = inhibition” value does the source give for `COCCN(C(=O)c1ccc(C#N)cc1)c1c(N)n(Cc2ccccc2)c(=O)[nH]c1=O` here?
Answer: inactive: 52.5%

Question: For `COc1ccc(CN2CCC(Cc3ccccc3)CC2)cc1OC`, which Potency is on record?
Answer: inconclusive: 15.8 µM [inhibitor, full curve]

Question: Which “activity change, negative = inhibition” value does the source give for `Cc1ccc(S(=O)(=O)OCCC2=CC(=O)CCN2Cc2ccccc2)cc1` here?
Answer: inactive: 89.8%
